Source: PMC12136788
The other results are listed elsewhere or left out.

T1: UNK ZnF1-3 (human, UniProt Q9C0B0 31-174)
T1 sequence: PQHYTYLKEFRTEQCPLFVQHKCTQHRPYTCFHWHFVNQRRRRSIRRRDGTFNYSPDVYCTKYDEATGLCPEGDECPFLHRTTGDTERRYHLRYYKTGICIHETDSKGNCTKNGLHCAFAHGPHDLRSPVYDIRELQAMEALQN

B1: chrX:103214973:103214974:+_ENSMUSG00000031231_ENSMUST00000033582|mus_mus|FALSE|FALSE (ssRNA)
RNA: GGGAGUUCUACAGUCCGACGAUCAGAAACACAGAAGAUGGCUCCACCUGCUAAUAUAGCAUUCCCAUAUUUGUCAUGGAAACUAGGUGCCCUCUUCUGGUGGCUCUGCCUUGCCACCACUUGCUGAAUGCUUCGAACUUGGAGCAACAGAGGAUUGAGCAUCA
B2: 58471268_58471476_997_ncRNA_ENSMUSG00000026034_ENSMUST00000148330|mouse|control|control (ssRNA)
RNA: GGGAGUUCUACAGUCCGACGAUCUGUUCAUCAUCAUAUGUUGCACUUCCAAAGUCCACCACUUUAAUAUCUGGAUUUACUAUAGUACGUUCAUCACGUUUCAUUUUGGGAUUAUAAGCCUCUGUGUAGUCAGACUUCACAAAUCAACAGAGGAUUGAGCAUCA
B3: chr1:75533408:75533409:+_ENSMUSG00000026213_ENSMUST00000113553|mus_mus|FALSE|FALSE (ssRNA)
RNA: GGGAGUUCUACAGUCCGACGAUCACUUUGGGAAGAGGGGAAGUUCACAACUUUUUCACAAUUGGUGGCUCACGCCAUUAAUCUCAACACUUAGAAGGCAGAGGUAGGCAGGUCUCCAUGAGUUCAAGGCCAGCCUGGUCUACACAACAGAGGAUUGAGCAUCA
B4: 76075535_76079160_4048_CDS_ENSG00000078687_ENST00000588847|human|control|control (ssRNA)
RNA: GGGAGUUCUACAGUCCGACGAUCUUUUGCUGCAAACUGCAAAAGCUGUGCUUGAACCUGAGGGGAUAGAAACUGAGGCACUUGAGCACGGAGACUGGGCUGGGAAGAGUUAAGAGGCUGCACUGGUGGCUGUGGCGGCUGCUGCAACAGAGGAUUGAGCAUCA
B5: chr7:141445308:141445309:+_ENSG00000106028_ENST00000265304|hu_hu|hu_hu_hu_mus_False|58_88 (ssRNA)
RNA: GGGAGUUCUACAGUCCGACGAUCUAUGAUUGUUGUUGCUUGCCGCCUCACAUUAUUUUUAUCCAUGUACUCGCCAUAGUCUAUUUUCCCUUCCACAAAUAUACGAGCCCCCUUUUUCACAUACUGAUAUGCCACAUCUCUGAGCAACAGAGGAUUGAGCAUCA
B6: chr1:169080634:169080635:+_ENSG00000143153_ENST00000367816|hu_mus|FALSE|FALSE (ssRNA)
RNA: GGGAGUUCUACAGUCCGACGAUCGGUUAGCAGCAUUACUUGGAUGGUCCCGAUGAAGAUGCCAGCCAGGCAGCCAUAAAAUAUCACGUAGAACAGAAGGAUCUUAAACCAACUACCACCGGUCCUGCCCAAAAACUCCUUCUUCAACAGAGGAUUGAGCAUCA
B7: chr6:40197388:40197389:+_ENSMUSG00000057716_ENSMUST00000061740|mus_mus|mus_mus_mus_hu_False|18_108 (ssRNA)
RNA: GGGAGUUCUACAGUCCGACGAUCGAGUUGUCAGUUUGGAUUUAUUCCACCUCUGUUUGGGUGCUAGCCACUAAGACUGUUAUUUUGGGAUUCAUGGCCUUGAAUAUCAAGAGGGAAGGGACGAGAAUGGAAAGAGUCAAGAGUCAACAGAGGAUUGAGCAUCA
B8: 21654947_21657548_106_5pUTR_ENSMUSG00000028252_ENSMUST00000108240|mouse|control|control (ssRNA)
RNA: GGGAGUUCUACAGUCCGACGAUCGCAAAUAGUGGGAGCUCUGCCAGAAGUUCCCUGCCAUGGAAUAAUACUGCUUGCCCUGAUACAAAUGCACCAGCCAGCAAAGCGGCCCGCGGAGCGACCAUAGACACAGUCCGGACGACUCAACAGAGGAUUGAGCAUCA
B9: chr15:90999404:90999405:+_ENSG00000140575_ENST00000268182|hu_hu|motif|central (ssRNA)
RNA: GGGAGUUCUACAGUCCGACGAUCCUGCAGAGUCUUUUGGGCAUCACCUUCAUCCAGGGCUUCAUUAAUUAAACCAAUGGCGGAAAUCCUCUCAUGUUCCUCUUGCACCACCAGGUUCACAUGGUCCACGCAAGCUUGGAUAUCCAACAGAGGAUUGAGCAUCA
B10: chr10:121586544:121586545:+_ENSG00000198825_ENST00000369080|hu_hu|FALSE|FALSE (ssRNA)
RNA: GGGAGUUCUACAGUCCGACGAUCCCGACUGCCCAAUCGAGGCGCUGAGGCAAUAAUACCACAACUAGGAAGAACGUAAUCUAUUGGCCCUACACUCUCUAAUGAGUUAGCUAGCUGCCUGUCUUCAUCAGACUUAGAAUUUGUCAACAGAGGAUUGAGCAUCA
B11: chr10:33214929:33214930:-_ENSG00000150093_ENST00000302278|hu_hu|hu_hu_hu_mus_True|8_28 (ssRNA)
RNA: GGGAGUUCUACAGUCCGACGAUCAACAAGUUCAUUGAAAAACUCUCCUCUGUCAGUAAGACUAAGCACAUUUUUGUAGCUAAAUGGGCUGGUGCAGUUUUGUUCACUUGUGCAAGGAUUUCUUAGCUUAGCUGGUGUUGUGCUCAACAGAGGAUUGAGCAUCA
B12: chr2:216981417:216981418:+_ENSG00000079246_ENST00000392132|hu_hu|hu_hu_hu_mus_True|88_98 (ssRNA)
RNA: GGGAGUUCUACAGUCCGACGAUCCUGAUACUGGUCCCCACCAGAAAGGGGAUUGUCAGUGCCAUCUGUGCCAUAGAGGACUAACGCAAUCUCAUCUUUGCUCUCCGAAAAUACCUGUCGUUGGACAAACAUAGUCAUCACUUUCAACAGAGGAUUGAGCAUCA
B13: 71052489_71058091_572_3pUTR_ENSG00000133997_ENST00000430055|human|control|control (ssRNA)
RNA: GGGAGUUCUACAGUCCGACGAUCCCAGGCUUUAGCUGCACAAAUUUGGGUGGAAAUUUUUGUCUGAGGUCUAAAAGUAAAGCAUCCACACGUUGUCUCUGAAAAAUAGAGCUUGGUUCUUCUUUCCUUUUGGCUUUAGGUCUGCAACAGAGGAUUGAGCAUCA
B14: chr15:41988372:41988373:+_ENSG00000174197_ENST00000570161|hu_mus|FALSE|FALSE (ssRNA)
RNA: GGGAGUUCUACAGUCCGACGAUCUGUCUCUUCUUGUUUCACUGUUAUCCCUUCUGGGCAUUCACCAAGUUCAUAAUCAUAAUCAUCUAGAGGCUCUUCUUUAAUGACGACAUUAAAGUUUCCAUUCGGGUUUGAUGGUGAGGACAACAGAGGAUUGAGCAUCA
B15: chr2:30381511:30381512:+_ENSG00000119801_ENST00000261353|hu_mus|motif|central (ssRNA)
RNA: GGGAGUUCUACAGUCCGACGAUCCAUGUGGCGGCCAGUGAGCAUGACCCGAUCUUGAACUUCACUGUACUGCAAGUUAACGGCCUUGUUAAAAAGAAAUGCUCUACCAGUGGCGCCUGUGAACCGAGUAGAGAUGAGUUCUGACAACAGAGGAUUGAGCAUCA
B16: chr10:7844279:7844280:+_ENSG00000165629_ENST00000356708|hu_hu|FALSE|FALSE (ssRNA)
RNA: GGGAGUUCUACAGUCCGACGAUCCUCAGAAGCAUUCUUGCUGGCAUUGUCCAUGGCUGUCAUCCUGGCACUCUGCUCACUAGUGGUGGACUCCUUCAGAGAGUAGUAGAUGAUGUUGGCCAGAUUGUAUUCUUGGUAAUUUUGCAACAGAGGAUUGAGCAUCA
B17: 49385543_49387563_1208_CDS_ENSMUSG00000069495_ENSMUST00000092123|mouse|control|control (ssRNA)
RNA: GGGAGUUCUACAGUCCGACGAUCCUUAGUUUUACAUUCUUGAACUUUGUGAUGAUUUCCAUUAUGAAGGGUUGCUGGACUGGCAUAUAACUCUUUUUCUGAUCUAUUAACUUUCACUUCAUUAAGGAUUUCACCCCCAUAGUCCAACAGAGGAUUGAGCAUCA
B18: 118375313_118375433_8789_CDS_ENSG00000118058_ENST00000534358|human|control|control (ssRNA)
RNA: GGGAGUUCUACAGUCCGACGAUCGGGACUCCGGGUGGUCAAGACAGACAGAUCAGAUGGUAGCUCUAGAGGCAACUCAAACUGUUCCUCUGCUGAGAUAGAGGAAGAGACACUACUAUCCACAGGUUCUGUUGUAGGCAGCUGCAACAGAGGAUUGAGCAUCA
B19: chr11:118268936:118268937:-_ENSMUSG00000025575_ENSMUST00000017620|mus_mus|motif|central (ssRNA)
RNA: GGGAGUUCUACAGUCCGACGAUCACCCCUUGCUCCCAGUCUCCGAGCAGUACACCCAUAUGGGCCGGGGCUCAGCUCCCGGUAAUGAAAUUCUCUAGCCAGGAACACAGCUCUUAGUUAAAAAAAGAAAAAAAGCAAACGAGUCAACAGAGGAUUGAGCAUCA
B20: 97535135_97535255_1580_CDS_ENSMUSG00000038437_ENSMUST00000044730|mouse|control|control (ssRNA)
RNA: GGGAGUUCUACAGUCCGACGAUCAGUGAAGCCAGCGAGCUGAGCCGCAGGGAGGGAGGCAGUCGGGCCUGAAGCACCCUCCUUGCCUCUGCUCCCUUUGGGUCGGCCUGGCCCGUGUCGGCUCCUUUUGCUGGCUUUGUGUUUCAACAGAGGAUUGAGCAUCA
B21: chr7:151048522:151048523:+_ENSG00000013374_ENST00000566856|hu_mus|hu_hu_hu_mus_True|8_108 (ssRNA)
RNA: GGGAGUUCUACAGUCCGACGAUCCUGCUUCUUAUUUAUUACGAUCUUGAUGUAAUUUUCUUGAAAUCCGAAAGUUUCAGCUAUUUGACACCUCAGGUCUCUACCAGUGACAUGCAAGCGGGUCUCCAACAAGUUUUUCUUAUCCAACAGAGGAUUGAGCAUCA
B22: chr12:39756943:39756944:-_ENSG00000139116_ENST00000544797|hu_mus|hu_hu_hu_mus_False|48_58 (ssRNA)
RNA: GGGAGUUCUACAGUCCGACGAUCGGUUUGGCUGUUACCCCCAAGGGAAUCCUGCAAGAGUCUUGUCAGCUUAGAGUCUCUAUAGGGGACAUGUGUGGCUCUCUUGCUCUUGUCCCCCAAGGCGCUGAUUACAUUCCCAAGAGCCAACAGAGGAUUGAGCAUCA

Target: T1, UNK ZnF1-3
Experiment: nsRBNS (natural sequence RNA bind-n-seq); RBNS binding buffer (assumed for nsRBNS): 25 mM Tris pH 7.5, 150 mM KCl, 3 mM MgCl2, 0.01% Triton X-100, 500 ug/ml BSA, 20 U/ml SUPERase-In, 4 C; UNK is unkempt and MSI1 is Musashi-1; names of the RNAs are library labels; protein concentration not given here; high values mean tight binding

Row | Binder | binding signal
1 | B1 | 1.09 enrichment R
2 | B2 | 0.599 enrichment R
3 | B3 | 1.37 enrichment R
4 | B4 | 2.44 enrichment R
5 | B5 | 0.668 enrichment R
6 | B6 | 1.59 enrichment R
7 | B7 | 1.5 enrichment R
8 | B8 | 1.58 enrichment R
9 | B9 | 1.59 enrichment R
10 | B10 | 1.14 enrichment R
11 | B11 | 0.944 enrichment R
12 | B12 | 0.813 enrichment R
13 | B13 | 0.865 enrichment R
14 | B14 | 0.872 enrichment R
15 | B15 | 1.22 enrichment R
16 | B16 | 0.698 enrichment R
17 | B17 | 0.659 enrichment R
18 | B18 | 1.53 enrichment R
19 | B19 | 1.78 enrichment R
20 | B20 | 0.238 enrichment R
21 | B21 | 0.715 enrichment R
22 | B22 | 0.756 enrichment R
